Inconclusive results are not listed. A number of entries come with more than one value. Only these are listed. The source may hold further records. Results that share an entry are repeats (runs, samples, wells, individuals or studies).
System: BDF1 mice, colon carcinoma 38 sc, T/C %
Experiment: NCI In Vivo Anticancer Drug Screen. Data for tumor model Colon Carcinoma 38 (subcutaneous) in B6D2F1 (BDF1) mice
Conditions: endpoint: median tumor weight (est.), schedule: Q07DX002 (ip), higher = larger tumour
In short: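 Transplantable tumor in mice; compound-treated vs vehicle-dosed controls. Measured survival or tumor size; value = T ÷ C.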

[1] = dose: 25.0 mg/kg/injection, vehicle: Klucel (hydroxypropylcellulose) (HPC)

## CCN(Cc1ccc(Cl)c(Cl)c1)c1ccc2nc(N)nc(N)c2c1C
dose: 50.0 mg/kg/injection, vehicle: distilled water + Tween-80
  T/C: 95 % of control and 159 % of control

## CCCCn1cnc2c(=S)nc[nH]c21
dose: 100.0 mg/kg/injection, vehicle: saline with Tween-80
  T/C: 62 % of control and 88 % of control
dose: 200.0 mg/kg/injection, vehicle: saline with Tween-80
  T/C: 35 % of control and 73 % of control

## CN(C)C=O
dose: 100.0 mg/kg/injection, vehicle: saline
  T/C: 60 % of control and 108 % of control

## CCN(CC)CCCNc1nccc2c(C)c3[nH]c4ccncc4c3cc12
dose: 2.5 mg/kg/injection, vehicle: other
  T/C: 70 % of control and 111 % of control
dose: 5.0 mg/kg/injection, vehicle: other
  T/C: 30 % of control and 64 % of control
dose: 10.0 mg/kg/injection, vehicle: other
  T/C: 19 % of control and 92 % of control

## Cc1ccc(S(=O)(=O)N/N=C/C(Br)=C(/Br)C(=O)O)cc1
dose: 50.0 mg/kg/injection, vehicle: Klucel (hydroxypropylcellulose) (HPC)
  T/C: 89 % of control and 123 % of control

## CC(C)(C)N1CC1CNC(=O)C(=O)NCC1CN1C(C)(C)C (stereo not given)
dose: 1.56 mg/kg/injection, vehicle: saline with Tween-80
  T/C: 73 % of control and 109 % of control
dose: 6.25 mg/kg/injection, vehicle: saline with Tween-80
  T/C: 84 % of control, 94 % of control, 175 % of control
dose: 50.0 mg/kg/injection, vehicle: saline with Tween-80
  T/C: 10 % of control, 17 % of control, 65 % of control

## CCC1=C[C@H]2CN(CCc3c([nH]c4ccccc34)[C@@](C(=O)OC)(c3cc4c(cc3OC)N(C)[C@H]3[C@@](O)(C(=O)OC)[C@H](OC(C)=O)[C@]5(CC)C=CCN6CC[C@]43[C@@H]65)C2)C1
dose: 0.5 mg/kg/injection, vehicle: water
  T/C: 67 % of control and 116 % of control
dose: 1.0 mg/kg/injection, vehicle: water
  T/C: 75 % of control and 109 % of control
dose: 2.0 mg/kg/injection, vehicle: water
  T/C: 65 % of control, 85 % of control, 95 % of control
dose: 8.0 mg/kg/injection, vehicle: water
  T/C: 29 % of control, 73 % of control, 92 % of control
dose: 16.0 mg/kg/injection, vehicle: water
  T/C: 31 % of control and 72 % of control

## CS(=O)(=O)OCCN(CCOS(C)(=O)=O)c1ccc(C=Nc2ccc(-c3csc(COc4ccccc4)n3)cc2)cc1
dose: 12.5 mg/kg/injection, vehicle: Klucel (hydroxypropylcellulose) (HPC)
  T/C: 60 % of control and 113 % of control
[1]
  T/C: 66 % of control and 97 % of control
dose: 100.0 mg/kg/injection, vehicle: Klucel (hydroxypropylcellulose) (HPC)
  T/C: 70 % of control and 152 % of control

## CNC(=O)OCc1c(COC(=O)NC)c(C)n(-c2ccc(OC)cc2)c1C
[1]
  T/C: 70 % of control and 105 % of control

## CC(=O)OCC1OC([S-])C(OC(C)=O)C(OC(C)=O)C1OC(C)=O.CC[PH+](CC)CC.CC[PH+](CC)CC.[Au].[Au] (stereo not given)
dose: 1.25 mg/kg/injection, vehicle: Klucel (hydroxypropylcellulose) (HPC)
  T/C: 101 % of control and 161 % of control

## C[CH2][Sn]([CH2]C)([O]S(C)(=O)=O)[O]S(C)(=O)=O
dose: 3.12 mg/kg/injection, vehicle: saline
  T/C: 14 % of control and 94 % of control
dose: 12.5 mg/kg/injection, vehicle: saline
  T/C: 47 % of control, 79 % of control, 98 % of control

## CSc1cc(=O)n2c3ccccc3c3ccnc1c32
dose: 5.0 mg/kg/injection, vehicle: saline with Tween-80
  T/C: 65 % of control and 98 % of control
dose: 10.0 mg/kg/injection, vehicle: saline with Tween-80
  T/C: 90 % of control and 158 % of control
dose: 20.0 mg/kg/injection, vehicle: saline with Tween-80
  T/C: 37 % of control and 91 % of control
dose: 40.0 mg/kg/injection, vehicle: saline with Tween-80
  T/C: 47 % of control and 162 % of control

## CC(C)C(N)C(=O)Nc1nncs1 (stereo not given)
dose: 25.0 mg/kg/injection, vehicle: saline
  T/C: 80 % of control and 115 % of control
dose: 50.0 mg/kg/injection, vehicle: saline
  T/C: 85 % of control and 112 % of control
dose: 800.0 mg/kg/injection, vehicle: saline
  T/C: 46 % of control and 83 % of control

Reference: PubChem BioAssay AID212 (DTP/NCI, 2004)
